Out of some 50,000 compounds screened, about 800 (1.6%) showed an effect of 50% or more. The list shows a part of the results.
Target: Bcl-2-like protein 10 (Homo sapiens) (UniProt Q9HD36)
Assay: TR3 peptide-Bcl-B binding displacers, biochemical primary FP assay, phenotype converters (AID 1240);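 also: 0% = Bcl-B with tracer peptide and DMSO and 100% = tracer peptide lacking Bcl-B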
Conditions: GST-Bcl-B / FITC-TR3 peptide fluorescence polarization; stronger effect = higher value; compound at 3.75 mg/L

UniProt Q9HD36, sequence (Q9HD36 whole entry, looked up): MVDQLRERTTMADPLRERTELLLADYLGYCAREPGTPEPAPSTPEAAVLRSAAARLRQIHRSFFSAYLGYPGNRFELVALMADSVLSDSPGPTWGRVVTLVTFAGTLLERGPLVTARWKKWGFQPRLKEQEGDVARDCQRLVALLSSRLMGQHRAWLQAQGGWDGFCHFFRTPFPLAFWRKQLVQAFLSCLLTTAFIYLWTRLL

| SMILES | displacement [%] |
| --- | --- |
| Cc1ccc(NC(=O)CCCCC(=O)Nc2ccc(C)c(F)c2)cc1F | -10.4 |
| NC1=NC(=O)/C(=C\c2ccc(-c3cccc(C(=O)O)c3)o2)S1 | -0.5 |
| Cc1ccn2c(C(=O)N/N=C\c3cccs3)c(C)nc2c1 | -8.2 |
| Cc1ccc(-c2nnc(NC(=O)Nc3cccc(Cl)c3)s2)cc1C | 13.5 |
| CCOc1cc(/C=C2/SC(=Nc3ccc(Cl)cc3)NC2=O)ccc1O | -7.7 |
| O=C(Cc1ccc(Br)cc1)Nc1ccccc1F | 8.3 |
| CC(=O)N=CC1=C(O)c2ccccc2C1=O | -3.5 |
| O=C(CSCC(=O)Nc1ccccn1)Nc1ccc2ccccc2c1 | -27.1 |
| O=C1CCCc2c1[nH]c1ccc(Cl)cc21 | 11.4 |
| Cc1nnc(Nc2ccc3c(c2)ncn3C)c2ccccc12 | -0.6 |
| Cc1ccc(NC(=O)C2CC3c4ccccc4C2c2ccccc23)cc1 (configuration not stated) | -1.3 |
| CCOc1ccc2nc(SCC(=O)Nc3cc(OC)ccc3OC)sc2c1 | 5.8 |
| Cc1ccc(-c2nn(CCC#N)cc2/C=N/O)o1 | 4.6 |
| O=S(=O)(NCc1ccccn1)c1ccc(Br)cc1Br | 9.2 |
| Cc1cnc(NC(=O)C2CC3CCC2C3)s1 (configuration not stated) | 14.8 |
| Cc1ccccc1C(=O)Nc1ccc(S(=O)(=O)Nc2ncccn2)cc1 | -5.8 |

| SMILES | displacement [%] |
| --- | --- |
| S=c1[nH]nc(-c2cccc(Cl)c2)n1-c1ccccc1 | 5.7 |
| CCCCOc1ccc(C(=O)NCc2ccc3c(c2)OCO3)cc1 | -11.5 |
| O=C(Cn1cc(/C=C2/C(=O)NC(=O)N(c3ccccc3F)C2=O)c2ccccc21)Nc1ccccc1 | 51.1 |
| FC(F)(F)c1cccc(Nc2nc(-c3ccccc3)cs2)c1 | 8.1 |
| COc1cccc(N(CC(=O)Nc2cccc(Br)c2)S(=O)(=O)c2ccccc2)c1 | 4.4 |
| COc1ccc(C(=O)Nc2ccc(Br)cc2C)c(OC)c1 | 23.1 |
| CCOc1ccc(N2C(=O)c3ccccc3NC2c2ccc(C)cc2)cc1 (configuration not stated) | 0.4 |
| O=C(c1sc2ccccc2c1Cl)N1CCN(C/C=C/c2ccccc2)CC1 | -8.1 |
| C/C(=N\Nc1nnc(-c2ccccc2)c(-c2ccccc2)n1)c1ccc(C)cc1 | 3.2 |
| O=C1c2ccccc2NC(c2ccc3c(c2)OCO3)N1Cc1ccco1 (configuration not stated) | 14.2 |
| CCCCc1nnc(NC(=O)CCN2C(=O)/C(=C/c3ccccc3)SC2=S)s1 | 2.5 |
| CCc1nn2c(N)c(C=C3C=CC(=O)C=C3)c(=O)nc2s1 | 1.9 |
| O=C1CC(c2cc([N+](=O)[O-])c(Cl)cc2Cl)=NO1 | 18.8 |
| COc1ccc(-n2nc3ccc(NC(=O)COc4ccccc4Cl)cc3n2)cc1 | 19.9 |
| CSc1ccc(CN2CCN(C(=O)c3cccs3)CC2)cc1 | -2.2 |
| O=C(NCc1cccnc1)/C(=C/c1ccc(-c2cccc(Cl)c2)o1)NC(=O)c1ccccc1 | 15.2 |

Reference: PubChem BioAssay AID1240 (Sanford-Burnham Center for Chemical Genomics, 2008)
